Laboratory results reported in the supplement of paper PMC11876631.
Where a chain is given by its changes, count along the chain named. In names and notes the source's numbering stands. ± gives the standard deviation of the averaged measurements. Laboratory Escherichia coli strains with one amino-acid change in an essential protein, pooled on minimal glucose agar with carbenicillin or gentamicin at twice the control MIC (plus kanamycin and chloramphenicol for the plasmids), 48 h. Fold change of barcode share against drug-free plates; higher = less susceptible. Active = above 20 in both replicates (the paper's putatively resistant). '<' = one read or none on drug, '>' = one read or none on a drug-free plate. Shares are relative, so most strains fall below 1 when a few take over. Listed are strains with at least 15 reads on both drug-free plates, and hits; most hits rest on fewer reference reads. Replicate rank correlation about 0.5. Edits are read from barcodes.

B1: asd I110D (protein)
chain: MKNVGFIGWRGMVGSVLMQRMVEERDFDAIRPVFFSTSQLGQAAPSFGGTTGTLQDAFDLEALKALDIIVTCQGGDYTNEIYPKLRESGWQGYWIDAASSLRMKDDAIIDLDPVNQDVITDGLNNGIRTFVGGNCTVSLMLMSLGGLFANDLVDWVSVATYQAASGGGARHMRELLTQMGHLYGHVADELATPSSAILDIERKVTTLTRSGELPVDNFGVPLAGSLIPWIDKQLDNGQSREEWKGQAETNKILNTSSVIPVDGLCVRVGALRCHSQAFTIKLKKDVSIPTVEELLAAHNPWAKVVPNDREITMRELTPAAVTGTLTTPVGRLRKLNMGPEFLSAFTVGDQLLWGAAEPLRRMLRQLA
B2: asd L139A (protein)
chain: B1 chain with D110I, L139A
B3: asd I110P (protein)
chain: B1 chain with D110P
B4: murA L239A (protein)
chain: MDKFRVQGPTKLQGEVTISGAKNAALPILFAALLAEEPVEIQNVPKLKDVDTSMKLLSQLGAKVERNGSVHIDARDVNVFCAPYDLVKTMRASIWALGPLVARFGQGQVSLPGGCTIGARPVDLHISGLEQLGATIKLEEGYVKASVDGRLKGAHIVMDKVSVGATVTIMCAATLAEGTTIIENAAREPEIVDTANFLITLGAKISGQGTDRIVIEGVERLGGGVYRVLPDRIETGTFAVAAAISRGKIICRNAQPDTLDAVLAKLRDAGADIEVGEDWISLDMHGKRPKAVNVRTAPHPAFPTDMQAQFTLLNLVAEGTGFITETVFENRFMHVPELSRMGAHAEIESNTVICHGVEKLSGAQVMATDLRASASLVLAGCIAEGTTVVDRIYHIDRGYERIEDKLRALGANIERVKGE
B5: murA I169D (protein)
chain: B4 chain with I169D, A239L
B6: murA V240A (protein)
chain: B4 chain with A239L, V240A
B7: murA I169A (protein)
chain: B4 chain with I169A, A239L
B8: murA I169W (protein)
chain: B4 chain with I169W, A239L
B9: murA I169P (protein)
chain: B4 chain with I169P, A239L
B10: murA I169Q (protein)
chain: B4 chain with I169Q, A239L
B11: mukF F31Q (protein)
chain: MSEFSQTVPELVAWARKNDFSISLPVDRLSQLLAVATLNGERLDGEMSEGELVDAFRHVSDAFEQTSETIGVRANNAINDMVRQRLLNRFTSEQAEGNAIYRLTPLGIGITDYYIRQREFSTLRLSMQLSIVAGELKRAADAAEEGGDEFHWHRNVYAPLKYSVAEIFDSIDLTQRLMDEQQQQVKDDIAQLLNKDWRAAISSCELLLSETSGTLRELQDTLEAAGDKLQANLLRIQDATMTHDDLHFVDRLVFDLQSKLDRIISWGQQSIDLWIGYDRHVHKFIRTAIDMDKNRVFAQRLRQSVQTYFDEPWALTYANADRLLDMRDEEMALRDEEVTGELPEDLEYEEFNEIREQLAAIIEEQLAVYKTRQVPLDLGLVVREYLSQYPRARHFDVARIVIDQAVRLGVAQADFTGLPAKWQPINDYGAKVQAHVIDKY
B12: mukF L52A (protein)
chain: B11 chain with Q31F, L52A

Target: Escherichia coli (laboratory strain)
Assay: barcode share on antibiotic plates over drug-free plates; higher = less susceptible
Method: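 A pool of E. coli strains, each edited to carry one amino-acid change in an essential protein, was grown for 48 h on minimal glucose agar with or without antibiotic; strain barcodes were sequenced; mean of two replicates.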

[1] = antibiotic: carbenicillin, 2× MIC (3.1 µg/mL)
[2] = antibiotic: gentamicin, 2× MIC (MIC 0.45 µg/mL)

Protein | fold change of barcode share [1] | fold change of barcode share [2]
B1 | 2.89 ± 2.3 | –
B2 | 0.309 ± 0.0049 | 0.00823 ± 0.0032
B3 | 0.3592 ± 0.0013 | 0.00651 ± 0.00021
B4 | 0.284 ± 0.1 | < 0.0138
B5 | 0.212 ± 0.0045 | < 0.00502
B6 | 0.571 ± 0.51 | < 0.00274
B7 | 0.249 ± 0.014 | < 0.00553
B8 | 0.368 ± 0.12 | 0.00943 ± 0.0089
B9 | 0.198 ± 0.11 | < 0.00543
B10 | 0.326 ± 0.13 | 0.15 ± 0.2
B11 | 0.641 ± 0.17 | 0.0285 ± 0.03
B12 | 0.263 ± 0.098 | 0.00891 ± 0.0059
